Results on 90 compounds are retold here after article PMC4336329 (PLoS ONE, 2015).

Structures are written as SMILES. In all, about 310,000 compounds went through this assay and about 2,200 (0.71%) showed an effect of 50% or more. The effect is printed as a negative number. This is one part of the list.

In the assay the target is human ether-à-go-go-related gene (hERG) potassium channel (human, UniProt Q12809). Put plainly: primary screen, population patch clamp on CHO cells stably expressing hERG.
Sequence of human ether-à-go-go-related gene (hERG) potassium channel (Q12809 whole entry, looked up): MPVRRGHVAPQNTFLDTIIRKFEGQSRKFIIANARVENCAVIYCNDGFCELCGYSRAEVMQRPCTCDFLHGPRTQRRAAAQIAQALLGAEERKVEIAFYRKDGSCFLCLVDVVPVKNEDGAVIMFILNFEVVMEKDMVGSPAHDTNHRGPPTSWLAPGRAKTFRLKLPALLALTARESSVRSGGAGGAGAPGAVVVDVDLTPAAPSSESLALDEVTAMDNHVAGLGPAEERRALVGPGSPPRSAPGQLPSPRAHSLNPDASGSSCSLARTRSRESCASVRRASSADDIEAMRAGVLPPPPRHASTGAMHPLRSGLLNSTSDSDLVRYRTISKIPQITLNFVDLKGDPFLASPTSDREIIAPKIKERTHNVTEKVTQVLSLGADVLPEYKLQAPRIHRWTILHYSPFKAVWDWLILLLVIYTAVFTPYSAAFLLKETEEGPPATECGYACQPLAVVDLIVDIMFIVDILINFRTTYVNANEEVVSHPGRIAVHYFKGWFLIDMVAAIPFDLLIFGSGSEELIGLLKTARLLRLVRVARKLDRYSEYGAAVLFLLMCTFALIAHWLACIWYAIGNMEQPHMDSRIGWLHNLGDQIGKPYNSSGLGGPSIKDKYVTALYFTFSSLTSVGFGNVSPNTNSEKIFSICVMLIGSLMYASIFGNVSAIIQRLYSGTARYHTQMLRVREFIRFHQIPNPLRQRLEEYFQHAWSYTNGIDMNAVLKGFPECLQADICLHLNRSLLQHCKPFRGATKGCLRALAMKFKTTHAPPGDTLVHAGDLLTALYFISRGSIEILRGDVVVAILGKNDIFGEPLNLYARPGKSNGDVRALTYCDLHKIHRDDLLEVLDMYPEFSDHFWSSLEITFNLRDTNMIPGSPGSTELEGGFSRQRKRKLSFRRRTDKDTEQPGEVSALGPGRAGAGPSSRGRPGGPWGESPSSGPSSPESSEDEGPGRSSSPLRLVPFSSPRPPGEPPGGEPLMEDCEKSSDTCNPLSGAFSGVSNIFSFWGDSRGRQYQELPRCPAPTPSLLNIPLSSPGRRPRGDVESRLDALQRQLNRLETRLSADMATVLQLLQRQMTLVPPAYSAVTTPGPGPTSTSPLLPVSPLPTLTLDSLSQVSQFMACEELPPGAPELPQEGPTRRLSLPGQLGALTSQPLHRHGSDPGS
With `Cc1ccc(Cl)cc1N1CCN(C(=O)CN(c2ccccc2)S(=O)(=O)N(C)C)CC1`, the “hERG current change (%, negative = inhibition) at 1uM” value was found to be 7.58%. Regarding `Cc1snnc1C(=O)NC(=S)Nc1ccccc1`, the “hERG current change (%, negative = inhibition) at 1uM” value is given as 12.4%. As for `O=[N+]([O-])c1ccc(Oc2cccc3cccnc23)c([N+](=O)[O-])c1`, the figure is -6.92%; as for `O=C(/C=C/c1ccc(Cl)cc1)N1CCN(c2ccccn2)CC1`, -10.6%; as for `CCCn1c(CN2CCN(C)CC2)nc2ccccc21`, 6.29%.

Take `Cc1cc(C)n2nc(C(=O)N/N=C/c3ccco3)nc2n1`: the “hERG current change (%, negative = inhibition) at 1uM” value amounted to 12.1%. Then `COc1ccc(OC)c(S(=O)(=O)n2cnc3cc(C)c(C)cc32)c1`, with 15.1%; and `COc1ccc2nc(NC(=O)C3CCN(S(=O)(=O)c4cccs4)CC3)sc2c1`, with 9.25%. Then `O=C(Nc1nnc(COc2ccccc2)s1)Nc1ccccc1F`, with 14.6%; and `Oc1ccc(Cl)cc1CNc1cnc2ccccc2c1`, with 16.4%; and `CCOc1ccc(C(=O)Oc2cc(C)[nH]c(=O)c2[N+](=O)[O-])cc1OCC`, with 19.6%. Consider `COc1ccc(C)cc1N(C(=O)c1ccccc1)c1nc2ccccc2s1`, for which the “hERG current change (%, negative = inhibition) at 1uM” value turned out to be 11.5%. In the case of `Cc1cc(C)cc(NC(=O)Cn2nnc(C(=O)NCc3ccc4c(c3)OCO4)c2N)c1`, the “hERG current change (%, negative = inhibition) at 1uM” value turned out to be 14.3%. Then `CC1(C)Cc2c(cnn2-c2ccccc2)C(NC(=O)c2ccoc2)C1` (stereo not drawn), with -91.7%; and `CC(=O)c1ccc(NC(=O)COC(=O)c2ccccc2N=Nc2ccc(N(C)C)cc2)cc1`, with 11.2%. As for `COc1ccccc1N1CCN(C2CCCN(S(=O)(=O)c3cccc(Cl)c3)C2)CC1` (stereo not drawn), the figure is 3.58%; as for `Nc1ccccc1C(=O)NCCN1CCNC1=O`, 15.2%; as for `COc1cccc(CN2CC(O)=C(c3nc(-c4ccc(Cl)cc4)cs3)C2=N)c1`, 1.11%.

With `O=C(c1ccsc1)N1CCCC(N2CCOCC2)C1` (stereo not drawn), the “hERG current change (%, negative = inhibition) at 1uM” value worked out at 14%. Then `CC(C(=O)N1CCN(c2ccc(Cl)cc2)CC1)c1ncc(C(F)(F)F)cc1Cl` (stereo not drawn), with -7.58%; and `CCCCCCOc1ccc(C(CC(=O)O)C(N)=O)cc1` (stereo not drawn), with -7.35%. Consider `O=C(NC(=O)c1cccc(F)c1)OC[C@@H]1CCCN2CCCC[C@H]12`, for which the “hERG current change (%, negative = inhibition) at 1uM” value was -13.4%.

As to `O=C(NCc1cccc(Cl)c1)C1CCCO1` (stereo not drawn), the “hERG current change (%, negative = inhibition) at 1uM” value is on record as 10.4%.

For `CCOC(=O)C1CCN(C/C=C/c2ccccc2[N+](=O)[O-])CC1`, the “hERG current change (%, negative = inhibition) at 1uM” value was -57%. As for `CN(C)CCN=Cc1c(O)n(Cc2ccc3c(c2)OCO3)c(=O)c2ccccc12`, the “hERG current change (%, negative = inhibition) at 1uM” value was determined as 1.28%.

`O=C(NCCCN1CCN(c2ccc(F)cc2)CC1)NC12CC3CC(CC(C3)C1)C2`: the “hERG current change (%, negative = inhibition) at 1uM” value is -16.4%.

As for `CCOC(=O)C1=C(CS(=O)(=O)c2ccc(C)c(C)c2)NC(=O)NC1c1ccc(O)cc1` (stereo not drawn), the “hERG current change (%, negative = inhibition) at 1uM” value was 14.1%.

Consider `Cc1ccc(C)c(CNC(=O)Nc2ccccc2)c1`, for which the “hERG current change (%, negative = inhibition) at 1uM” value came to 18.7%. As for `CCOC(=O)CSCC(=O)Nc1cc(C)ccc1C`, the figure is 5.86%; as for `O=C(Nc1ccccc1N1CCCC1)c1cccnc1`, -0.676%; as for `COc1ccc(CCn2c(C)cc(C(=O)CN3C(=O)C(=O)N(Cc4ccco4)C3=O)c2C)cc1`, 4.85%. For the compound `CCOc1ccc(N(CC(=O)NC2CC3CCC2C3)S(=O)(=O)c2ccccc2)cc1` (stereo not drawn), the “hERG current change (%, negative = inhibition) at 1uM” value amounted to 20.5%.

Turning to `CS(=O)(=O)c1ccc([C@@H](O)[C@@H](CO)NC(=O)C(Cl)Cl)cc1`, the “hERG current change (%, negative = inhibition) at 1uM” value came to 7.93%. Then `Cc1nnc(SCC(=O)N2CCN(C(=O)c3ccco3)CC2)n1C`, with 8.57%.

`Cc1cc(=O)oc2cc(OCC(=O)Nc3ccc4[nH]c(=O)[nH]c4c3)ccc12`: the “hERG current change (%, negative = inhibition) at 1uM” value is 11.6%. Then `COc1ccc(OC)c(S(=O)(=O)N2CCC3(CC2)OCCN3S(=O)(=O)c2ccccc2)c1`, with 7.55%; and `Cc1ccc(C(=O)N2CCN3C(=O)c4ccccc4C23c2ccc(Cl)cc2)cc1` (stereo not drawn), with 4.31%. As to `COc1ccc(-n2nc([N+](=O)[O-])c(=NCCC3=CCCCC3)n2O)cc1`, the “hERG current change (%, negative = inhibition) at 1uM” value is -8.78%. As for `COc1cccc2c1NC(C(=O)O)C1CC=CC21` (stereo not drawn), the figure is 8.98%; as for `N=c1c(C(=O)NC2CCCC2)cc2c(=O)n3ccccc3nc2n1CC1CCCO1` (stereo not drawn), -94.4%. Regarding `Cc1ccc2nc(N/C(N)=N/S(=O)(=O)c3ccc([N+](=O)[O-])cc3)nc(C)c2c1`, the “hERG current change (%, negative = inhibition) at 1uM” value was 1.77%. Then `O=C(Cn1nc(C(=O)O)c2ccccc2c1=O)NCCC1=CCCCC1`, with -2.32%. `c1cncc(-c2nc(N3CCOCC3)c3ccccc3n2)c1`: the “hERG current change (%, negative = inhibition) at 1uM” value was determined as 8.76%. As for `COC(=O)CCCC1=CC2=C(c3ccccc3)C(=O)C(C)(OC(=O)C3CCCC3)C(=O)C2=CN1C(CO)CO` (stereo not drawn), the figure is 9.98%. As for `COc1ccc(OC)c(C(=O)N2CCC(CCC(=O)NC3CC3)CC2)c1`, the figure is 12.7%; as for `COc1ccccc1-c1cc(C(F)(F)F)nc(N2CCN(c3ccc(F)cc3)CC2)n1`, 30.7%. As to `CC1Sc2ccc(S(=O)(=O)CCC(=O)N(C)Cc3ccco3)cc2NC1=O` (stereo not drawn), the “hERG current change (%, negative = inhibition) at 1uM” value came to 8.19%.

On to `Cc1ccc(OCCNC(=O)CCNS(=O)(=O)c2ccc3ccccc3c2)cc1`, for which the “hERG current change (%, negative = inhibition) at 1uM” value is recorded as 12.7%.

On to `O=c1[nH]c(=S)[nH]nc1Cc1ccc(Cl)c(Cl)c1`, for which the “hERG current change (%, negative = inhibition) at 1uM” value is recorded as 17.4%. On to `Cc1ccc(NC(=O)/C(=C\c2ccccc2)NC(=O)/C=C/c2ccccc2)cc1`, for which the “hERG current change (%, negative = inhibition) at 1uM” value is on record as -4.35%.

Take `CCOc1cc(N2CCOCC2)c(OCC)cc1NC(=O)c1ccc(S(=O)(=O)N(C)C)cc1`: the “hERG current change (%, negative = inhibition) at 1uM” value was 10.8%. As for `Cc1cc(C)c(S(=O)(=O)NCC(=O)NCc2ccco2)c(C)c1`, the figure is 7.56%; as for `Cc1cc(Cl)nc(Cl)c1C(=O)N1CCOCC1`, 8.58%; as for `COc1ccc(-c2ccc(-c3nnn(CC(C)=O)n3)cc2)cc1`, 5.98%. As for `CC(C)OC(=O)CSc1nnc(-c2ccccn2)n1-c1ccccc1`, the figure is 1.56%. For `Cc1ccc(S(=O)(=O)Nc2ccc(-n3cnnn3)cc2)c(C)c1`, the “hERG current change (%, negative = inhibition) at 1uM” value is -0.244%. Then `CCOc1ccccc1CN1CCN(CC2CC2)CC1CCO` (stereo not drawn), with 9.15%; and `Cc1cc(/C=N/NC(=O)c2cc3ccccc3o2)c(C)n1C`, with 32.5%; and `CCOC(=O)c1cnc2ccc(Cl)cc2c1N1CCN(C)CC1`, with -0.805%. As to `CC(C)c1nc2cc3ccccc3cc2[nH]1`, the “hERG current change (%, negative = inhibition) at 1uM” value is recorded as 5.19%. As for `Cc1occc1-c1nnc(SCC(=O)N2CCN(c3ccccc3F)CC2)n1C`, the figure is 8.49%; as for `O=C(Cc1cccs1)NC1CCCC1`, 12.6%. In the case of `COc1cc(NC(=O)C2CCCO2)c(OC)cc1Cl` (stereo not drawn), the “hERG current change (%, negative = inhibition) at 1uM” value is 5.44%. Then `CC1(C)CCC(=O)C=C1Nc1ccc(F)c(Cl)c1`, with 15.5%; and `O=C(CCc1ccc(O)cc1)N1C[C@H]2C[C@@H](C1)c1cccc(=O)n1C2`, with 14.1%; and `COCc1nnc(NS(=O)(=O)c2ccc([N+](=O)[O-])cc2)s1`, with 0.334%.

`CC(C)NC(=S)NC(=O)c1ccc(Cl)cc1Cl`: the “hERG current change (%, negative = inhibition) at 1uM” value was 14.6%. Then `COc1ccc(C2SCC(=O)Nc3c2c(C)nn3-c2ccccc2)cc1OC` (stereo not drawn), with 15.4%; and `Cc1sc2nc(CN(Cc3cccs3)C(=O)NC3CCCCC3)[nH]c(=O)c2c1C`, with 6.83%; and `CCOc1ccc(Oc2ccccc2NC(=O)C2=COCCO2)cc1`, with 0.808%. For `NS(=O)(=O)c1ccc(CCNC(=O)CNC(=O)c2ccccc2F)cc1`, the “hERG current change (%, negative = inhibition) at 1uM” value amounted to 11.3%. As to `NS(=O)(=O)c1ccc(NC(=S)N2CCc3ccccc32)cc1`, the “hERG current change (%, negative = inhibition) at 1uM” value came out at 8.15%. Then `S=C(Nc1ccc2cn[nH]c2c1)Nc1ccc(Cl)cc1Cl`, with 3.93%; and `O=C(Nc1nsc(-c2ccccc2)n1)c1ccncc1`, with 13%. As for `Cc1ccc2cc(C)c(SCC(=O)NCC3CCCO3)nc2c1` (stereo not drawn), the “hERG current change (%, negative = inhibition) at 1uM” value was determined as 12.7%. Then `CCOC(=O)N(C)c1ccc(C(O)(C(=O)OC)C(F)(F)F)cc1` (stereo not drawn), with 18.8%. Regarding `COc1ccc(S(=O)(=O)N2CCC(C(=O)NCCC(=O)Nc3ccc(Cl)cc3)CC2)cc1`, the “hERG current change (%, negative = inhibition) at 1uM” value worked out at 8.94%. Then `CS(=O)(=O)N(CC(=O)N1CCCCCC1)c1ccc(Br)cc1`, with 9.5%. Then `Cc1ccc(C)c(-n2c(CNC(=O)c3ccco3)nnc2SCC(=O)Nc2nnc(C)s2)c1`, with 18.6%.

Take `Cc1ccccc1OCC(=O)N/N=C/c1sc(=O)n(Cc2cccc(C(=O)O)c2)c1Cl`: the “hERG current change (%, negative = inhibition) at 1uM” value is on record as 12.1%.

Take `CCNC(=S)N1CCN(c2nc(-c3ccc(F)cc3)cs2)CC1`: the “hERG current change (%, negative = inhibition) at 1uM” value is reported as 13.7%. As for `O=C1NCCCC1C(=O)N1CCCCC1` (stereo not drawn), the figure is 11.6%; as for `COc1cc(/C=N/n2cnnc2)ccc1OC(=O)N(C)C`, 13.4%.

Turning to `CC(=O)N1CCN(CC(=O)Nc2c(Cl)ccc(C)c2Cl)CC1`, the “hERG current change (%, negative = inhibition) at 1uM” value was determined as 10.5%. Take `C/C(Cc1ccccc1)=N\NC(=O)c1cccnc1`: the “hERG current change (%, negative = inhibition) at 1uM” value came out at 11.4%. On to `CC(C)(C)C(=O)COC(=O)c1cc2ccccc2cc1O`, for which the “hERG current change (%, negative = inhibition) at 1uM” value is listed as 11.7%.

On to `CC[C@H](C)[C@@H]1NC(=O)c2cc([N+](=O)[O-])cc(I)c2SC[C@@H](C(N)=O)NC(=O)[C@H](CCCCN)NC1=O`, for which the “hERG current change (%, negative = inhibition) at 1uM” value is -6.25%. `CC(C(=O)NCC1(c2ccccc2)CCCC1)N1CCOCC1` (stereo not drawn): the “hERG current change (%, negative = inhibition) at 1uM” value worked out at 4.66%.

Turning to `O=S1(=O)CCOCCN1Cc1ccc(Cl)cc1Cl`, the “hERG current change (%, negative = inhibition) at 1uM” value came to 3.48%.

Turning to `CCc1ccc(NC(=O)CCc2nnc3ccc(N4CCCC4)nn23)cc1`, the “hERG current change (%, negative = inhibition) at 1uM” value came out at 22.2%.
